# From PubChem BioAssay AID504832 (National Center for Advancing Translational Sciences (NCATS), 2011)
# Hit rate of the full screen: of about 310,000 compounds, about 18,000 (5.8%) were called active. Inconclusive results, whose numbers are uncertain, are shown with a selection of clear calls. The call rests on the fitted dose curve; in most records, active means well fitted inhibition curve with a large enough effect; inconclusive means small, poorly fitted or top-dose-only effect, or another doubt; inactive means no such curve, though single readings can be large or run the other way. No potency is given beside an inconclusive call; the fits are too rough.
# Assay: Primary qHTS for delayed death inhibitors of the malarial parasite plastid, 48 hour incubation
# Settings: P. falciparum luciferase growth in erythrocytes; series mostly up to 28.7 µM; activity change, negative = inhibition: at the top concentration
# Procedure, shortened: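 A one-generation exposure of luciferase-tagged malaria parasites in RPMI 1640/Albumax erythrocyte culture, 37 C and 5% CO2. Inhibition is inferred from decreased luminescence after adding detection reagent.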
# On the % scale 0 is the no-effect control and ±100 the full control effect; potency means the concentration at half of the fitted maximal effect; tags describe the fitted curve by direction and shape.
SMILES,Potency,"activity change, negative = inhibition"
Nc1cnn(-c2ccccc2)c(=O)c1Cl,"inconclusive [inhibitor, single point]",–
O=C(OCCOc1ccccc1)c1n[nH]c2ccccc12,–,inactive: 222%
CCOC(=O)c1c(NC(=O)c2nn(CC)cc2Br)c(C#N)cn1-c1ccccc1,active: 9.28 µM,–
C[C@@H]1Cc2c(O)c(O)cc(O)c2C(=O)O1,"inconclusive [inhibitor, single point]",–
COc1cc2c(cc1OC)-c1cc(NC3CCCCCC3)nc(=O)n1CC2,"inconclusive [inhibitor, single point]",–
CSc1ccccc1NC(=S)N/N=C/c1cccn1Cc1cccc(C)c1,"inconclusive [inhibitor, full curve, poor fit]",–
Cc1ccsc1/C=N/NC(=O)c1ccc2ccccc2c1,–,inactive: 2.29%
COc1ccccc1C(=O)NC1CCCCCCC1,"inconclusive [inhibitor, partial curve, poor fit]",–
COc1ccc(Cl)cc1NC(=O)CN(C)C(=O)c1cc2ccccc2cc1O,"inconclusive [inhibitor, single point]",–
COc1ccc(C(=O)Cn2nnc(-c3ccccc3F)n2)cc1,–,inactive: 32.6%
CCN(CC)S(=O)(=O)c1ccc(OCC2CCCCO2)c([N+](=O)[O-])c1 (stereo not drawn),"inconclusive [inhibitor, single point]",–
CCN(CC)S(=O)(=O)c1ccc(OC)c(NC(=O)C(C)Oc2ccc3c(C)cc(=O)oc3c2)c1 (stereo not drawn),active: 1.85 µM,–
Fc1ccc(-c2cc(C(F)(F)F)nc(NCc3cccs3)n2)cc1,"inconclusive [inhibitor, partial curve, poor fit]",–
CC(=O)N1CCOc2ccc(S(=O)(=O)N3CCC(C(=O)NCc4ccc(F)cc4)CC3)cc21,"inconclusive [inhibitor, partial curve, poor fit]",–
COCCN1C(=O)c2oc3c(C)cc(C)cc3c(=O)c2C1c1cccc(O)c1 (stereo not drawn),"inconclusive [inhibitor, single point]",–
Cc1ccc(NC(=O)/C=C/c2ccc([N+](=O)[O-])s2)cc1,"inconclusive [inhibitor, single point]",–
COc1cccc(NC(=O)C2CCN(S(=O)(=O)c3ccc4c(c3)NC(=O)C(C)S4)CC2)c1 (stereo not drawn),"inconclusive [inhibitor, partial curve, poor fit]",–
CC(C(=O)c1ccc(Br)cc1)[n+]1cccc2ccccc21 (stereo not drawn),"inconclusive [inhibitor, full curve]",–
O=C(C1CCC1)N1CCc2cc(S(=O)(=O)NCCN3CCN(c4ccccc4F)CC3)ccc21,"inconclusive [inhibitor, partial curve]",–
CC(=O)/C(=C/N(C)C)C(=O)Nc1ccc(Cl)cc1Cl,–,inactive: 2.09%
Cn1c(=O)c(C(=O)COc2ccc(C#N)cc2)c(N)n(Cc2ccccc2)c1=O,"inconclusive [inhibitor, single point]",–
COc1cccc(NC(=S)N(CCCN2CCC(C)CC2)Cc2cccs2)c1,–,inactive: -29.2%
Cc1[nH]c(-c2ccc(F)cc2)cc1C(=O)N1CCN(c2ccc(Cl)cc2)CC1,"inconclusive [inhibitor, single point]",–
CN1c2ccccc2C(O)=C(C(=S)Nc2ccc(F)c(Cl)c2)S1(=O)=O,"inconclusive [inhibitor, single point]",–
Cc1ccc(C)c(OCCCCCn2ccnc2)c1,active: 14.7 µM,–

SMILES,Potency,"activity change, negative = inhibition"
CCN(CC)CCCNC(=S)N(Cc1cccnc1)Cc1cc2cccc(C)c2[nH]c1=O,"inconclusive [inhibitor, single point]",–
CC(=O)C(Sc1nnnn1-c1ccccc1)C(C)=O,–,inactive: 38.8%
CC(C)CNC(=S)NC1CC2CCC(C1)N2Cc1ccccc1 (stereo not drawn),"inconclusive [inhibitor, single point]",–
O=C(Nc1ccccc1)Nc1ncc([N+](=O)[O-])s1,–,inactive: -61%
Nc1nc(-c2ccc3c(c2)CCC(=O)N3)cs1,–,inactive: 62.7%
CCN(c1ccc(C)cc1C)S(=O)(=O)c1nnc(NC(=O)C(C)C)s1,active: 13.1 µM,–
COc1ccc(S(=O)(=O)N(C)CC(=O)N2CCN(c3ccccc3)CC2)cc1,–,inactive: -24.2%
S=C(NCCN1CCCCC1)Nc1ccc(Br)cc1,"inconclusive [inhibitor, single point]",–
CC(=O)Nc1ccc(/C(C)=N\NC(=O)c2ccc(-c3ccccc3)cc2)cc1,active: 0.657 µM,–
COC(=O)c1ccc(NC(=O)c2ccc(NS(=O)(=O)c3cccc4cccnc34)cc2)cc1,–,inactive: 3.19%
COc1cc(Br)c(CNc2cc(C)ccc2C)cc1OC,"inconclusive [inhibitor, full curve]",–
CCN(CC)C(=S)Nc1ccc(OC)cc1,–,inactive: -8.96%
CCc1c(C)c2cc(Cl)c(O)c(CN3CCCCC3)c2oc1=O,–,inactive: -1.68%
Cc1cccc(C(=O)OC(C)C(=O)NCC2CCCCC2)c1O (stereo not drawn),"inconclusive [inhibitor, single point]",–
COC(=O)c1ccc(COc2ccccc2/C=C/C(=O)c2ccc(OCC(=O)O)cc2)cc1,"inconclusive [inhibitor, partial curve]",–
Cc1ccccc1N1C(=O)CC1(C#N)c1ccc(OCc2ccccc2)cc1 (stereo not drawn),"inconclusive [inhibitor, single point]",–
O=[N+]([O-])c1ccc(S(=O)(=O)NCC(c2cccnc2)N2CCc3ccccc3C2)cc1 (stereo not drawn),"inconclusive [inhibitor, single point]",–
Cc1cccc(NS(=O)(=O)c2ccc3c(c2)oc(=O)n3C)c1C,–,inactive: -17.8%
O=C(O)CCCNS(=O)(=O)/C=C/c1ccccc1,–,inactive: -0.212%
N#CC/C(N)=N/Nc1nc2ccccc2nc1Cc1ccccc1,active: 4.65 µM,–
Cc1cccc(NC(=O)CSc2nc(COc3ccccc3)nc3ccccc23)c1C,"inconclusive [inhibitor, single point]",–
COc1ccc(NC2=CC(=O)N(C)C2=O)cc1,–,inactive: 86.8%
CC(=O)C1=C(O)C(=O)N(c2ccc(C)cc2)C1c1ccc([N+](=O)[O-])cc1 (stereo not drawn),"inconclusive [inhibitor, partial curve, poor fit]",–
CCc1ccccc1Nc1nc(N)nc(COC(=O)c2c(C)noc2C)n1,"inconclusive [inhibitor, single point]",–
Cc1cccc(Cn2c(O)c(N=NC(=S)Nc3ccccc3F)c3ccccc32)c1,"inconclusive [inhibitor, full curve, poor fit]",–

SMILES,Potency,"activity change, negative = inhibition"
COc1ccc(CN2C(=O)C(Cc3ccccc3)Nc3ncnc(N4CCOCC4)c32)cc1 (stereo not drawn),"inconclusive [inhibitor, single point]",–
COCc1cc(CN2CCCC2)c(O)c2ncccc12,active: 2.94 µM,–
CCN1CCN(c2ccc(Cl)cc2NC(=O)c2ccco2)CC1,"inconclusive [inhibitor, single point]",–
CCOC(=O)NC(=O)CSc1nnnn1-c1ccccc1,–,inactive: -1.01%
C=CCn1c(=NC(=O)c2ccc(S(=O)(=O)N3CCc4ccccc4C3)cc2)sc2cc(S(N)(=O)=O)ccc21,–,inactive: -24%
CCOC(=O)N1CCN(c2nc(-c3cccs3)cc(C(F)(F)F)n2)CC1,"inconclusive [inhibitor, single point]",–
CCOC(=O)N1CCN(S(=O)(=O)c2ccc(C(=O)Nc3sc4c(c3C(N)=O)CCN(CC)C4)cc2)CC1,"inconclusive [inhibitor, partial curve]",–
Cn1c(CSCc2ccccc2)nnc1SCC(=O)Nc1nccs1,"inconclusive [inhibitor, partial curve, poor fit]",–
CC(C)(C)C(=O)/C=c1\s/c(=C\c2ccc(-c3ccc([N+](=O)[O-])cc3)o2)c(=O)n1CC(=O)NC(N)=O,"inconclusive [inhibitor, full curve, poor fit]",–
CCOCCn1ccc2c(OCC(=O)Nc3ccccc3OC)cccc2c1=O,"inconclusive [inhibitor, single point]",–
CN(C(=O)c1cc(-c2ccccc2)on1)C1CCCCC1,–,inactive: 180%
CCOC(=O)c1ccc2nc(C(F)(F)F)[nH]c(=O)c2c1,"inconclusive [inhibitor, single point]",–
CN1CCN(C(=O)CCN2C(=O)/C(=C/c3ccc(F)cc3)SC2=S)CC1,"inconclusive [inhibitor, single point]",–
O=C(CN1CCNCC1)NC1CCCCC1,–,inactive: 5.52%
Clc1nssc1=Nc1nncs1,–,inactive: 21.5%
c1ccc(-c2c[n+]3c(n2-c2ccccc2)SCC3)cc1,active: 1.65 µM,–
CC(C)CCC1(CCNC(C)c2cccs2)CCOC(C)(C)C1 (stereo not drawn),"inconclusive [inhibitor, single point]",–
COc1c(OC(C)=O)ccc(/C=C/c2ccc3ccccc3n2)c1[N+](=O)[O-],–,inactive: -69.9%
COc1cc(/C=N/NC(=O)c2cccnc2)ccc1OS(=O)(=O)c1ccc(F)cc1,"inconclusive [inhibitor, partial curve, poor fit]",–
CC(OC(=O)Cc1n[nH]c(=O)c2ccccc12)C(=O)Nc1ccc(F)cc1Cl (stereo not drawn),"inconclusive [inhibitor, single point]",–
O=c1c2ccccc2[nH]c2ccc(O)cc12,–,inactive: -10.2%
COc1ccccc1CN(C)CC(=O)NC1CCCc2ccccc21 (stereo not drawn),"inconclusive [inhibitor, full curve, poor fit]",–
O=S(=O)(c1ccc2c(c1)CCCN2)N1CCCC1,–,inactive: -15.6%
